Consider 20 molecules from paper PMC9911399, “Two distinct binding modes provide the RNA-binding protein RbFox with extraordinary sequence specificity”.

The labels stand for the following.
T1: RBFOX1 RRM (Homo sapiens, UniProt Q9NWB1 109-208)
T1 sequence: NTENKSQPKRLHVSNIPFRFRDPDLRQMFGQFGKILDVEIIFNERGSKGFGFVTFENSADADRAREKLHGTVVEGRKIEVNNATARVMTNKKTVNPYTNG

B1: CGGUACC (DNA:RNA)
RNA: GGGAGACCGGAAUUCAGAUUGUCCCGGUACCUUAAAUCCCGUCGUAGCCACCA
DNA 1: CAATCTGAATTCCGGTCTCCC
DNA 2: TGGTGGCTACGACGGGATT
B2: UUCCGUA (DNA:RNA)
RNA: GGGAGACCGGAAUUCAGAUUGUCCUUCCGUAUUAAAUCCCGUCGUAGCCACCA
DNA 1: CAATCTGAATTCCGGTCTCCC
DNA 2: TGGTGGCTACGACGGGATT
B3: ACUCCAG (DNA:RNA)
RNA: B2 RNA with U25A, U26C, C27U, G29C, U30A, A31G
DNA 1: CAATCTGAATTCCGGTCTCCC
DNA 2: TGGTGGCTACGACGGGATT
B4: CCUUAAU (DNA:RNA)
RNA: B1 RNA with G26C, G27U, C30A, C31U
DNA 1: CAATCTGAATTCCGGTCTCCC
DNA 2: TGGTGGCTACGACGGGATT
B5: AUGAUGA (DNA:RNA)
RNA: B2 RNA with U25A, C27G, C28A, G29U, U30G
DNA 1: CAATCTGAATTCCGGTCTCCC
DNA 2: TGGTGGCTACGACGGGATT
B6: AACUGGU (DNA:RNA)
RNA: B2 RNA with U25A, U26A, C28U, U30G, A31U
DNA 1: CAATCTGAATTCCGGTCTCCC
DNA 2: TGGTGGCTACGACGGGATT
B7: UCCAUAG (DNA:RNA)
RNA: B2 RNA with U26C, C28A, G29U, U30A, A31G
DNA 1: CAATCTGAATTCCGGTCTCCC
DNA 2: TGGTGGCTACGACGGGATT
B8: CACCUCA (DNA:RNA)
RNA: B2 RNA with U25C, U26A, G29U, U30C
DNA 1: CAATCTGAATTCCGGTCTCCC
DNA 2: TGGTGGCTACGACGGGATT
B9: UAGAGGA (DNA:RNA)
RNA: B2 RNA with U26A, C27G, C28A, U30G
DNA 1: CAATCTGAATTCCGGTCTCCC
DNA 2: TGGTGGCTACGACGGGATT
B10: ACAUAUU (DNA:RNA)
RNA: B1 RNA with C25A, G26C, G27A, C30U, C31U
DNA 1: CAATCTGAATTCCGGTCTCCC
DNA 2: TGGTGGCTACGACGGGATT
B11: CGGUCAA (DNA:RNA)
RNA: B1 RNA with A29C, C30A, C31A
DNA 1: CAATCTGAATTCCGGTCTCCC
DNA 2: TGGTGGCTACGACGGGATT
B12: CUCUGGA (DNA:RNA)
RNA: B2 RNA with U25C, C28U, U30G
DNA 1: CAATCTGAATTCCGGTCTCCC
DNA 2: TGGTGGCTACGACGGGATT
B13: GCCACCU (DNA:RNA)
RNA: B1 RNA with C25G, G26C, G27C, U28A, A29C, C31U
DNA 1: CAATCTGAATTCCGGTCTCCC
DNA 2: TGGTGGCTACGACGGGATT
B14: CGUUAGA (DNA:RNA)
RNA: B1 RNA with G27U, C30G, C31A
DNA 1: CAATCTGAATTCCGGTCTCCC
DNA 2: TGGTGGCTACGACGGGATT
B15: UCGUAAC (DNA:RNA)
RNA: B1 RNA with C25U, G26C, C30A
DNA 1: CAATCTGAATTCCGGTCTCCC
DNA 2: TGGTGGCTACGACGGGATT
B16: UUGGUGU (DNA:RNA)
RNA: B2 RNA with C27G, C28G, G29U, U30G, A31U
DNA 1: CAATCTGAATTCCGGTCTCCC
DNA 2: TGGTGGCTACGACGGGATT
B17: GCUGAAU (DNA:RNA)
RNA: B1 RNA with C25G, G26C, G27U, U28G, C30A, C31U
DNA 1: CAATCTGAATTCCGGTCTCCC
DNA 2: TGGTGGCTACGACGGGATT
B18: GCAUGGC (DNA:RNA)
RNA: B1 RNA with C25G, G26C, G27A, A29G, C30G
DNA 1: CAATCTGAATTCCGGTCTCCC
DNA 2: TGGTGGCTACGACGGGATT
B19: UCUAUGA (DNA:RNA)
RNA: B2 RNA with U26C, C27U, C28A, G29U, U30G
DNA 1: CAATCTGAATTCCGGTCTCCC
DNA 2: TGGTGGCTACGACGGGATT
B20: CAGCAGG (DNA:RNA)
RNA: B1 RNA with G26A, U28C, C30G, C31G
DNA 1: CAATCTGAATTCCGGTCTCCC
DNA 2: TGGTGGCTACGACGGGATT

Residue numbers refer to the chain shown, from its start. The list shows a part of the results.

This assay has as its target T1, RBFOX1 RRM. Nature of the assay: EMSA; HiTS-Eq, 1 nM pool, 10 min; buffer printed only for the single-RNA assays: 10 mM Tris pH 7.5, 150 mM NaCl, 3.4 mM EDTA, 0.001% NP-40, 30 C. Particulars: tags: His6 N-terminal (pET28a); label: 5' 32P. The method, boiled down:
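Purified RbFox RRM (wild type or mutant) was equilibrated for 10 min in 50 µL with 1 nM of a 5′-radiolabelled pool of RNA with 7 randomized nucleotides, its flanks annealed to DNA oligonucleotides, across increasing protein concentrations. Free RNA was separated by 8% native PAGE, excised, reverse-transcribed, PCR-barcoded and sequenced on an Illumina HiSeq 2500. Relative association constants came from read-count changes of each variant against the control reaction, normalised to the cognate motif.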
On the technique in general: A gel shift assay detects complexes by their altered migration in electrophoresis.
B1: the binding signal is 0.00911 KA relative to UGCAUGU. With B2, the binding signal is 0.00467 KA relative to UGCAUGU. Regarding B3, the binding signal is 0.00187 KA relative to UGCAUGU. Turning to B4, the binding signal was 0.00134 KA relative to UGCAUGU.

With B5, the binding signal was 0.0162 KA relative to UGCAUGU. On to B6, for which the binding signal is 0.00971 KA relative to UGCAUGU. On to B7, for which the binding signal is 0.0074 KA relative to UGCAUGU. Under B8 stands 0.00147 KA relative to UGCAUGU; under B9, 0.00353 KA relative to UGCAUGU. In the case of B10, the binding signal was 0.000313 KA relative to UGCAUGU.

With B11, the binding signal was 0.00469 KA relative to UGCAUGU. In the case of B12, the binding signal is 0.00614 KA relative to UGCAUGU. B13: the binding signal is 0.00566 KA relative to UGCAUGU. The same measure for B14: 0.00888 KA relative to UGCAUGU; for B15: 0.0085 KA relative to UGCAUGU; for B16: 0.0306 KA relative to UGCAUGU. For B17, the binding signal is 0.024 KA relative to UGCAUGU. B18: the binding signal was 0.43 KA relative to UGCAUGU. Consider B19, for which the binding signal was 0.0107 KA relative to UGCAUGU. As to B20, the binding signal is 0.00872 KA relative to UGCAUGU.
